Some of the results follow.
What follows are compounds tested on S. aureus RN4220 (assay: growth inhibition call (relative growth <= 0.2)). Conditions: 50 µM.

Growth inhibition call, inactive:
C[C@H]1CN([C@@H](C)CO)C(=O)Cc2cc(NS(=O)(=O)c3ccccc3)ccc2O[C@@H]1CN(C)S(=O)(=O)c1cn(C)cn1
C[C@@H]1CCCCO[C@@H](CN(C)Cc2ccc(Cl)c(Cl)c2)[C@@H](C)CN([C@H](C)CO)C(=O)c2cc(NC(=O)Nc3ccccc3)ccc2O1
C[C@@H]1CCCCO[C@H](CN(C)S(=O)(=O)c2ccccc2)[C@@H](C)CN([C@H](C)CO)C(=O)c2cc(NC(=O)Nc3ccccc3)ccc2O1
COc1ccc(NC(=O)Nc2ccc3c(c2)C(=O)N([C@H](C)CO)C[C@@H](C)[C@H](CN(C)Cc2ccc(Oc4ccccc4)cc2)O3)cc1
C[C@@H]1CCCCO[C@@H](CN(C)C(=O)c2ccccc2)[C@H](C)CN([C@H](C)CO)C(=O)c2cc(NC(=O)Nc3ccc(F)cc3)ccc2O1
C[C@H]1CN([C@@H](C)CO)C(=O)CCCn2nncc2CO[C@@H]1CN(C)C(=O)CCCN(C)C
NS(=O)(=O)c1ccccc1
Cc1noc(C)c1S(=O)(=O)N(C)C[C@H]1OCCCC[C@@H](C)Oc2ccc(NC(=O)Nc3ccc(F)cc3)cc2C(=O)N([C@@H](C)CO)C[C@H]1C
C[C@H](CO)N1C[C@H](C)[C@H](CN(C)S(=O)(=O)c2cn(C)cn2)Oc2ncc(-c3cccc(F)c3)cc2C1=O
Cc1noc(C)c1S(=O)(=O)Nc1ccc2c(c1)C(=O)N([C@H](C)CO)C[C@H](C)[C@H](CN(C)CC1CC1)O2
CNC[C@@H]1Oc2ccc(NS(=O)(=O)c3cn(C)cn3)cc2CC(=O)N([C@H](C)CO)C[C@@H]1C
